The record followed here is ChEMBL document CHEMBL4888484, “Replenishing the malaria drug discovery pipeline: Screening and hit evaluation of the MMV Hit Generation Library 1 (HGL1) against asexual blood stage Plasmodium falciparum ,using a nano luciferase reporter read-out” (2022).

SMILES strings stand for the structures. The whole screen tested about 150,000 compounds, of which about 540 (0.36%) showed an effect of 50% or more. This is one part of the list.

What is called % Inhibition is the relative decrease from the control value, in per cent.

The subject of the experiment is Plasmodium falciparum. Nature of the experiment: Primary screen in NF54 nanoGlo assay, in single point, at 2uM, 72h; a lower Z score goes with more inhibition. The experiment is classed as functional, Erythrocyte. The note with it: timepoint 72 hour.
With `CC(C)CCn1c[n+](-c2nc3ccccc3nc2[N-]S(=O)(=O)c2ccc(Cl)cc2)c2ccccc21`, the “% Inhibition” value was 4% and the Z score is given as -0.74.

On to `Cc1cccc(NS(=O)(=O)c2cc(C(=O)NCc3cccnc3)ccc2Cl)c1C`, for which the “% Inhibition” value is -5% and the Z score turned out to be 1.09.

In the case of `COc1cc2ncn([C@H]3[C@@H]4OC[C@@H](O4)[C@@H](NCC4CCCCC4)[C@@H]3O)c2cc1OC`, the “% Inhibition” value is on record as 3% and the Z score is -0.4.

Take `C[C@H](c1noc(C2CCN(C(=O)c3ccoc3)CC2)n1)C1CC1`: the “% Inhibition” value is -2% and the Z score was found to be 0.31.

Regarding `CC(C)C[C@]1(CO)CCCN(C(=O)c2cnc(O)cc2O)C1`, the “% Inhibition” value was -8% and the Z score is 1.06.

With `CC(C)(C)OC(=O)NS(=O)(=O)Nc1cccnc1`, the “% Inhibition” value was 30% and the Z score is listed as -3.92.

As to `Cn1cc(CN2CC[C@H](O)CC(C)(C)C2)cn1`, the “% Inhibition” value is reported as -4% and the Z score was 0.36.

Turning to `Cc1cnc(NC(=O)CCc2cccs2)s1`, the “% Inhibition” value is reported as -6% and the Z score stood at 0.71.

As to `Cc1[nH]c(=O)c(C#N)c(C)c1CCC(=O)N1CCOC2CCCCC21` (stereo unspecified), the “% Inhibition” value is given as -24% and the Z score is 2.22.

Take `Cn1ncc2c(N3CCCC[C@@H]3Cn3cccn3)ncnc21`: the “% Inhibition” value was determined as 5% and the Z score is -0.76.

With `COc1ccnc(NC[C@H](C)Cn2nc(C)cc2C(F)(F)F)n1`, the “% Inhibition” value is reported as -15% and the Z score is on record as 1.53.

With `CCN(C(=O)[C@H](C)OC)c1ccc(Cl)c(F)c1`, the “% Inhibition” value was -10% and the Z score turned out to be 2.06.

Turning to `Cc1ccc(-c2nc(NC(=O)C3=COCCO3)sc2-c2ccc(C)cc2)cc1`, the “% Inhibition” value is -5% and the Z score stood at 0.54.

As to `CCC(=O)c1cc(Br)ccc1OCC(=O)NC(C)(C)C`, the “% Inhibition” value is -6% and the Z score is given as 1.12.

Regarding `O=C(Cc1noc(Cc2ccc3c(c2)CCCC3)n1)NC1CCCC1`, the “% Inhibition” value is 1% and the Z score is on record as -0.14.

As for `Cn1cc(C(=O)N2CCc3[nH]c(-c4ccccc4)nc3C2)c(=O)[nH]c1=O`, the “% Inhibition” value was -9% and the Z score was 1.37.

Take `Cc1cc(C)n2nc(OCCN(C)C)c(S(=O)(=O)c3ccccc3)c2n1`: the “% Inhibition” value was -10% and the Z score is recorded as 1.38.

Consider `CN(Cc1nnc2c(=O)n(C)ccn12)C(=O)[C@@H](F)CC1CCCCC1`, for which the “% Inhibition” value is on record as -3% and the Z score amounted to 0.38.

Regarding `Cc1cc(NC(=O)CC(C)NC(C)C2COc3ccccc32)no1` (stereo unspecified), the “% Inhibition” value is listed as -2% and the Z score worked out at 0.31.

As to `CCCc1cc(NC[C@H]2CCc3nnc(CC)n3C2)n2ncnc2n1`, the “% Inhibition” value is recorded as -9% and the Z score is listed as 1.52.

Turning to `NC(=O)[C@@H]1C[C@@H]2CCCN2[C@]12C(=O)Nc1ccccc12`, the “% Inhibition” value was -12% and the Z score came to 1.48.

`N#Cc1ccc(O)c(NC(=O)C2CC2c2ccco2)c1` (stereo unspecified): the “% Inhibition” value was -13% and the Z score was determined as 2.39.

On to `O=C(Nc1ccncc1)c1nn(Cc2ccccc2Cl)c(=O)c2ccccc12`, for which the “% Inhibition” value was -4% and the Z score came out at 0.51.
